According to ChEMBL document CHEMBL1201862, “PubChem BioAssay data set” (2004):
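Exposure lasted 48 hours, with cells grown in 96-well plates and compounds tested at five concentrations. GI50 is the concentration that inhibits growth by half.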 Calls of active or inactive are those of the source. Cut-off read from the data, not from the text of the source: active = GI50 up to about 1.1 µM and inactive = higher.

Tested on: NCI-H322M
Assay: DTP human tumour cell line panel, 48 h

COc1ccc(C(=O)/C=C/c2ccc(O)c(O)c2)c(OC)c1 was tested. Which GI50 did it give?
Its GI50 is inactive: 1.52 µM.

Which GI50 does the source give for CCCn1c2c(c3ccccc3c1=O)C(=O)c1ccccc1-2 here?
The GI50 was inactive: > 81.1 µM.

With NNC1=NC(=O)NC(=O)C1 as the molecule, how does the GI50 read?
Its GI50 is inactive: > 100 µM.

How did the GI50 turn out when CSc1nc(O)c(C#N)c(-c2ccccc2)n1 was run?
The GI50 was inactive: > 100 µM.

How did the GI50 turn out when CCOC(=O)C(=O)C1C(=O)Nc2ccccc21 (stereo not drawn) was run?
The GI50 was inactive: > 100 µM.

How did the GI50 turn out when CCOC(=O)c1c(N=C(S)Nc2ccc(Cl)cc2)sc2c1CCN(C)C2 was run?
The GI50 was inactive: > 100 µM.

CCOC(=O)CC1Nc2ccccc2C12CCc1c([nH]c3ccccc13)C2C(=O)OCC (stereo not drawn) was tested. Which GI50 did it give?
The GI50 was inactive: 19.6 µM.

Which GI50 does the source give for CN1C(=O)C(O)C[C@@H]1c1ccccc1 (stereo partly drawn) here?
The GI50 was inactive: > 100 µM.

CC(NC(=O)C(N)CC(=O)O)NC(=O)N(C)C(C)(C)C (stereo not drawn) was tested. Which GI50 did it give?
The GI50 was inactive: > 100 µM.

O=C(/C=C/c1ccccc1)CCC1C(=O)NC(=O)NC1=O was tested. Which GI50 did it give?
The GI50 was inactive: > 100 µM.

With CCOP(=O)(OCC)/C(F)=C/c1ccc(F)cc1 as the molecule, how does the GI50 read?
Its GI50 is inactive: > 100 µM.

For CC(C)(NO)/C(=N\O)c1ccccc1, which GI50 is on record?
Its GI50 is inactive: > 10 µM.

How did the GI50 turn out when COc1cc(OC)c2c(=O)cc(-c3ccccc3F)[nH]c2c1 was run?
Its GI50 is inactive: 65.6 µM.

For COC(=O)C1CCC(=O)N1C(c1ccc(OC)cc1)c1ccc(OC)cc1 (stereo not drawn), which GI50 is on record?
Its GI50 is inactive: > 100 µM.

CCC12CCCN(Cc3ccccc3)C1c1c(n(C)c3ccccc13)CC2 (stereo not drawn) was tested. Which GI50 did it give?
The GI50 was inactive: > 253 µM.

With COc1cc(OC)c(-n2[nH]c(=O)n(C)c2=O)c(OC)c1 as the molecule, how does the GI50 read?
Its GI50 is inactive: > 100 µM.

For CN1CCN(C(=O)CCC(=O)Nc2cc3c(c4ccccc24)-c2ccc4ccccc4c2C3)CC1, which GI50 is on record?
The GI50 was inactive: 1.56 µM.

With Clc1nncc2sc(-c3ccccc3)nc12 as the molecule, how does the GI50 read?
The GI50 was inactive: 15.8 µM.

How did the GI50 turn out when CC1(C)CC[C@]2(C)CC=C3[C@]4(C)CC[C@H]5C(C)(C)C(=O)CC[C@]5(C)[C@H]4CC[C@@]3(C)[C@H]2C1 was run?
Its GI50 is inactive: > 100 µM.

Which GI50 does the source give for CCOC(=O)c1sc2nc(SC)nc3c2c1NCN3c1ccccc1Cl here?
The GI50 was inactive: > 100 µM.

With C=C1c2nc3ccccc3n2C=C(c2ccc(OC)cc2)N1c1ccc(OC)cc1 as the molecule, how does the GI50 read?
Its GI50 is inactive: 22.7 µM.

For Oc1ccc(-c2nc(-c3ccc4ccccc4n3)c(-c3ccc(F)cc3)[nH]2)cc1, which GI50 is on record?
Its GI50 is inactive: 15.4 µM.

CC12ON(P(=O)(c3ccccc3)c3ccccc3)C(C)(c3ccccc31)c1ccccc12 was tested. Which GI50 did it give?
Its GI50 is inactive: > 100 µM.

Which GI50 does the source give for CN(C)CCNc1c([N+](=O)[O-])sc2ccc(Cl)cc12 here?
Its GI50 is inactive: 4.24 µM.

CC1(C)C=Cc2c(cc(O)c3c(=O)c4cc(Cl)ccc4[nH]c23)O1 was tested. Which GI50 did it give?
The GI50 was inactive: 2.8 µM.

C[C@@H](C[C@H]1OC(C)(C)O[C@@H]1C(C)(C)O)[C@H]1CC=C2[C@]3(C)[C@H](O)C[C@H]4C(C)(C)[C@H](O)CC[C@]4(C)[C@H]3CC[C@]21C was tested. Which GI50 did it give?
Its GI50 is inactive: 11.8 µM.

For CC(C)=CCNc1ncnc2c1ncn2CCC#N, which GI50 is on record?
The GI50 was inactive: > 100 µM.

With Cc1ccc(-c2cc(N)n(-c3nc4c([nH]3)c(=O)n(C)c(=O)n4C)n2)cc1 as the molecule, how does the GI50 read?
The GI50 was inactive: 4.04 µM.

For Cc1cccc2nc3cccc(C(=O)NCCC[N+](C)(CCCNC(=O)c4cccc5nc6cccc(C)c6nc45)Cc4ccc([N+](=O)[O-])n4C)c3nc12, which GI50 is on record?
The GI50 was inactive: 1.5 µM.

For Cc1ccc2c(c1)OC1Nc3ccccc3C1=C2O (stereo not drawn), which GI50 is on record?
Its GI50 is inactive: 30.5 µM.

Which GI50 does the source give for Cc1cc(-c2nc3ccc(F)cc3s2)ccc1NC(=O)[C@H](C)N here?
Its GI50 is inactive: 7.82 µM.

CC(C)(C)OC/C=C(\Br)CO was tested. Which GI50 did it give?
Its GI50 is inactive: > 100 µM.

For O=c1cccccc1NCCNc1cccccc1=O, which GI50 is on record?
Its GI50 is inactive: > 100 µM.

How did the GI50 turn out when Cc1ccc(C2(O)CC(c3ccc([N+](=O)[O-])o3)=NN2C(=O)COc2ccc(Cl)cc2)cc1 (stereo not drawn) was run?
The GI50 was inactive: 6.04 µM.

How did the GI50 turn out when COc1cc(-c2nc3cc(F)ccc3s2)ccc1O was run?
The GI50 was inactive: 38.1 µM.

For CC1OC(OC2C[C@](O)(C(=O)CBr)Cc3c(O)c4c(c(O)c32)C(=O)c2ccccc2C4=O)C(F)C(O)C1O (stereo partly drawn), which GI50 is on record?
Its GI50 is inactive: 39.5 µM.

With Nc1ccn(C2OC(CO)C(O)C2O)c(=O)c1 (stereo not drawn) as the molecule, how does the GI50 read?
Its GI50 is inactive: > 625 µM.

How did the GI50 turn out when O=C(Nc1ccccc1)OCc1nc2c([nH]1)C(=O)C=CC2=O was run?
The GI50 was inactive: 13.8 µM.
